Test results published in PubChem BioAssay (NCI).
Values joined by “and” are separate entries in the source; they are usually repeats but may differ in a detail not shown here. Equal entries are not always repeated.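 Cultured in 96-well plates, cells were exposed to test compound for 48 hours across five concentrations. Here, GI50 denotes the concentration required for 50% inhibition of growth. At the TGI there is no net growth.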

tested on: NCI-H322M lung; assay: NCI anticancer screen, dose series, 48 h

SMILES	TGI	GI50
N#CCC(=O)N/N=C1/C(=O)N(c2cc(Cl)ccc2Cl)C(=O)C(=O)C1c1nc2ccccc2s1 (stereo not drawn)	> 100 µM	–
CCOC(=O)C1(C#N)C(=O)c2cc[n+](CC[n+]3ccc4c(c3)C(=O)C(C#N)(C(=O)OCC)C4=O)cc2C1=O (stereo not drawn)	> 100 µM	–
O=C(c1ccccc1Cl)n1oc2ccccc2c1=O	> 100 µM	–
CCOC(=O)Cc1nnc2n(-c3ccccc3)c(=O)c3ccccc3n12	> 100 µM	–
COc1ccc(C(=O)c2c3cc(OC)c(OC)c(OC)c3cc[n+]2C)cc1	> 100 µM	–
CN(C)CCCSc1ccccc1NC1=C(Cl)C(=O)C(Nc2ccccc2SCCCN(C)C)=C(Cl)C1=O	25.2 µM	12.5 µM
COc1ccc(NC(C)=O)cc1N1C(=O)/C(=C\c2ccccc2)SC1c1cc(OC)c(OC)c(OC)c1 (stereo not drawn)	> 100 µM	–
O=S1(=O)c2ccccc2C(Nc2ccccc2)N1c1ccccc1 (stereo not drawn)	> 100 µM	–
CCCC1CC(=O)NC(=O)C1C(=O)OC(C)(C)C (stereo not drawn)	> 100 µM	–
O=C(O)C1(Cc2ccccc2)Cc2cc3c(cc2C1)CCC3	> 100 µM	–
C=C1[C@H](OCC(C)C)[C@@H](O)[C@@H](OC(=O)c2cccnc2)C(C)(C)/C=C/[C@H](C)[C@H](OC(C)=O)[C@@]2(O)C[C@@](C)(OC(C)=O)[C@H](OC(=O)c3ccccc3)[C@@H]2[C@H]1OC(C)=O	> 5 µM	–
CC(=O)NC(Cc1ccccc1)NC(=O)O (stereo not drawn)	> 100 µM	–
COc1ccc2c(C)c(Oc3c(Cl)c(Cl)c(O)c(C#N)c3C#N)oc2c1	> 100 µM	–
O=C1C2CCCCC2C(=O)N1n1c(-c2ccccc2)n[nH]c1=O (stereo not drawn)	> 100 µM	–
Oc1c(Cl)cc(Cl)cc1/C=N/Nc1nnc(N/N=C/c2cc(Cl)cc(Cl)c2O)c2ccccc12	> 100 µM	0.455 µM
O=C(O)c1ccccc1CC1Cc2cc3c(cc2C1)CCC3	> 100 µM	–
CCOC(=O)CC[C@H](NC(=O)N[C@H](C)c1ccccc1)C(=O)OCC	> 100 µM	–
CSc1nc2nn(Cc3ccccc3)cc2c(=O)[nH]1	> 100 µM	–
CC12CCC(=O)N1c1cncnc1N2 (stereo not drawn)	> 10 µM	–

SMILES	TGI	GI50
CC(C)(C)c1ccc2c(c1)C#Cc1cc(C(C)(C)C)ccc1OCCCO2	> 100 µM	–
COC(=O)c1ncc2c(=O)[nH]c3ccccc3c2c1C(=O)OC	> 100 µM	–
CCCCCCCCCCCCCC1=C(O)C(=O)C(CC2=C(O)C(=O)C(CCCCCCCCCCCCC)=C(O)C2=O)=C(O)C1=O	> 100 µM	–
COc1ccc(C2ON(c3ccccc3)CC=C2C)cc1 (stereo not drawn)	> 100 µM	–
CC(C)CCNC(=O)C(CC(C)C)NC(=O)[C@H]1O[C@@H]1C(=O)O (stereo partly drawn)	> 100 µM	–
CCOC(=O)C(NC(C)=O)(Nc1ccc(S(N)(=O)=O)cc1)C(F)(F)F (stereo not drawn)	> 100 µM	–
Cc1cc(N2CCCCC2)nc(NC2CCCC(Nc3ccnc4cc(Cl)ccc34)C2)n1 (stereo not drawn)	3.13 µM	1.53 µM
O=[N+]([O-])c1ccc(C(Cl)C(Cl)c2ccc(C(Cl)C(Cl)c3ccc([N+](=O)[O-])cc3[N+](=O)[O-])cc2)c([N+](=O)[O-])c1 (stereo not drawn)	> 62 µM and 6.6 µM	0.979 µM
CC(C)(Oc1ccc(Cl)cc1)C(=O)N(C(=O)N1CCCCC1)c1ccccc1	30 µM	–
COc1ccc(N2C(=O)C3c4[nH]c5ccccc5c4C4CC(C)(C)CC(C)(C)C4C3C2=O)cc1 (stereo not drawn)	45.7 µM	–
COc1cc(/C=N/c2nc3cc4sc(/N=C/c5cc(OC)c(OC)c(OC)c5)nc4cc3s2)cc(OC)c1OC	> 100 µM	–
Cc1ccc(/C=C(\NC(=O)c2ccccc2)c2nc3ccccc3[nH]2)cc1	> 100 µM	–
Cn1c(=O)c2nc3c(=O)n(C)c(=O)n(CC(N)=O)c3nc2n(C)c1=O	> 100 µM	–
O=C(Oc1c(Cl)cc(C2(c3cc(Cl)c(OC(=O)c4ccccc4)c(Cl)c3)CCCCC2)cc1Cl)c1ccccc1	25.9 µM	–
CC(=O)OCC1OC(c2c(OC(C)=O)cc(C)c3c(=O)cc(/C(C(C)=O)=C(\C)O)oc23)C(OC(C)=O)C(OC(C)=O)C1OC(C)=O (stereo not drawn)	> 100 µM	–
COC(=O)c1ccc(/C=C(\c2ccc([N+](=O)[O-])o2)S(=O)(=O)c2ccc(NC(C)=O)cc2)o1	33.4 µM	–
CCc1cnn2c(NCc3ccc[n+]([O-])c3)cc(N3CCCC[C@H]3CCO)nc12	1.74 µM	< 0.0111 µM and 0.00539 µM
O=C1Cc2nc(CO)c(CO)c(CO)c2CO1	> 100 µM	–
O=C(CSCC(=O)N/N=C/c1ccccc1)N/N=C\c1ccccc1	> 100 µM	–
